Hit rate of the full screen: of about 50,000 compounds, about 800 (1.6%) showed an effect of 50% or more. The list shows a part of the results.

The experiment deals with Bcl-2-like protein 10 (Homo sapiens) (UniProt Q9HD36). The experiment is described as follows: Phenotype converters, Bcl-B/TR3 peptide binding displacement, primary biochemical FP (AID 1240).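 Further: 0% = Bcl-B with tracer peptide and DMSO and 100% = tracer peptide lacking Bcl-B.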 The conditions noted are these: GST-Bcl-B / FITC-TR3 peptide fluorescence polarization; stronger effect = higher value; compound at 3.75 mg/L.
UniProt Q9HD36, sequence (Q9HD36 whole entry, looked up): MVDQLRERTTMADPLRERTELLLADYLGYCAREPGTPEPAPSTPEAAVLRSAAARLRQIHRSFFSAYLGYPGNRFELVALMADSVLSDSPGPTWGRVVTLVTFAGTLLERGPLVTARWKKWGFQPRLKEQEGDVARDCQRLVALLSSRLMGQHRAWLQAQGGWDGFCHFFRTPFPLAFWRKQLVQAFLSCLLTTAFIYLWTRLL
On to `CC1(C)N([O-])C2=C(c3ccccc3C2=O)[N+](=O)C1(C)C`, for which the displacement was -3.1%. To `COc1ccc(CNC(=S)Nc2ccc(Cl)cc2Cl)cc1` belongs 10.3%. As for `Cc1ccc(S(=O)(=O)c2nc(Nc3ccccc3C)sc2Cl)cc1`, the displacement amounted to 14.2%. As for `COC(=O)C(CC(C(=O)OC)C(=O)OC)C(=O)OC`, the displacement came out at 9.1%. To `O=C(Cc1ccc(Br)cc1)N1CCN(c2ccccc2)CC1` belongs 9.8%. Take `O=C(NCc1cccnc1)C1c2ccccc2Oc2ccccc21`: the displacement is -4.6%. Regarding `CC1=NN(C(=O)CCc2ccccc2)C(O)(c2ccc(Cl)cc2)C1` (stereo unspecified), the displacement was -6.4%. As for `O=Cc1cc(-c2ccccc2)oc1Cl`, the displacement is -4.1%. For the molecule `Cc1ccc(-c2c(CCC(C)(O)c3ccccc3)oc3ccccc23)o1` (stereo unspecified), the displacement is -14.8%. With `COc1ccc(Oc2ccc3[nH]c4c(c3c2)CCC/C4=N/O)cc1`, the displacement was -3.6%. In the case of `Cc1ccc(C(C)C)c(OCc2nnc(NC(=O)Nc3ccccc3)s2)c1`, the displacement worked out at 8.4%. For the molecule `Cc1[nH]c(=O)c(C#N)c2c1COC(C)(C)C2`, the displacement was determined as 3.9%. As to `COc1ccccc1NC(=O)C1CC2c3ccccc3C1c1ccccc12` (stereo unspecified), the displacement is -6.4%. `Cc1ccc(NC(=O)COc2ccc(Cl)c(C)c2)c(Br)c1`: the displacement was -12%. Consider `CCOC(=O)c1ccc(NCc2cc(Br)ccc2O)cc1`, for which the displacement was -3.1%. On to `COc1ccc(CNCc2ccc([N+](=O)[O-])cc2)cc1`, for which the displacement is -1.4%. As for `COc1ccc(/C(N)=N/OC(=O)CCc2ccccc2)cc1`, the displacement came to 0%. For the molecule `COC(=O)/C=C1/N/C(=N/c2nc3ccccc3s2)NC1=O`, the displacement is 1.8%. `Cc1cc(C)cc(NCc2ccncc2)c1`: the displacement was 17.1%.

For `Cc1ccc(C(C)C)c(OCC(=O)N/N=C/c2ccc(C(=O)O)cc2)c1`, the displacement was determined as 9%. Consider `O=C(/C=C/c1ccccc1)CC(=O)C(F)(F)F`, for which the displacement came out at 11%. To `CCOc1ccc(NCC(=O)N/N=C/c2cccc([N+](=O)[O-])c2)cc1` belongs -1.3%. To `Cc1ccc(-c2nc3cc(Cl)ccc3o2)cc1NC(=O)C(C)C` belongs -16.5%.

Regarding `Cc1ccc(S(=O)(=O)N(Cc2ccccc2)c2ccccc2C(=O)Nc2c(C)n(C)n(-c3ccccc3)c2=O)cc1`, the displacement was found to be 8.2%.

As to `O=C(NCCOc1ccccc1F)Nc1ccc(Br)cc1`, the displacement is -0.6%. The result for `CS(C)=C1C(=O)NC(=O)N(c2ccccc2)C1=O` reads 12.9%. With `O=[N+]([O-])c1ccccc1S(=O)(=O)Nc1ccc(OCc2ccccc2)cc1`, the displacement worked out at 11.9%.

As to `Cc1cc(C)c(NC(=O)Cn2cnc3c2c(=O)n(C)c(=O)n3C)c(C)c1`, the displacement was -9.1%. The result for `CCOC(=O)c1c(-c2ccccc2)oc2c([N+](=O)[O-])cc([N+](=O)[O-])cc12` reads 11.5%; that for `COc1ccc(C(=O)CC2(C(F)(F)F)NCCN2)cc1`, 0.5%; that for `CC(=O)c1cccc(NC(=O)C2COc3ccccc3O2)c1` (stereo unspecified), -0.4%. To `N#C/C(=C1\NC2(CCCCC2)Cc2ccccc21)c1ccccc1` belongs -12.1%. For the molecule `O=C(NN1C(=O)S/C(=C\c2ccccc2O)C1=O)c1ccc([N+](=O)[O-])cc1`, the displacement was -22.6%. To `Cc1c(NC(=O)CC2CCC2)c(=O)n(-c2ccccc2)n1C` belongs 13.3%.

Regarding `CC(C)(C)c1ccc2[nH]c3c(c2c1)CCC/C3=N\O`, the displacement is -3.6%.

`Cc1cc(Cl)ccc1OCC(=O)Nc1ncn[nH]1`: the displacement stood at 7.3%. Consider `Cc1ccc(OCCNc2cc(N3CCN(C)CC3)ccc2[N+](=O)[O-])cc1C`, for which the displacement is 12.1%.

In the case of `O=C(Nc1ccccc1C(=O)Nc1ccccn1)c1ccccc1F`, the displacement amounted to 4.5%. As for `Cc1cc2c(cc1C)CN(c1ccc(C=Nc3cccc(Br)c3)cc1)C2`, the displacement is -8.5%. For `CN(C)c1ccc(NC(=O)c2ccccc2F)cc1`, the displacement stood at 0.4%.

Take `Cc1ccc(-c2nn(-c3ccccc3)cc2/C=C(\C#N)C(N)=O)o1`: the displacement turned out to be 61.7%. As for `COc1ccc(C(=O)c2ccccc2)c2c(O)ccc(C(=O)c3ccccc3)c12`, the displacement is -4.4%. To `CC1CCN(C2=NC(=O)/C(=C/c3cccc4ccccc34)S2)CC1` belongs -5.8%.

Regarding `O=C(O)CNC(=O)/C(=C\c1cccs1)NC(=O)c1ccccc1`, the displacement amounted to 7%.

For `Cc1ccc(N2C(=O)CC(N3CCC(Cc4ccccc4)CC3)C2=O)cc1` (stereo unspecified), the displacement was -1.8%. As for `CC(C)COc1ccc(C(=O)Nc2ccc(Br)cc2)cc1`, the displacement was found to be 10%. As for `CC(=O)C1=C(O)CCC1=Nc1ccccc1`, the displacement was found to be 5.5%. Turning to `CCN(CC)c1ccc(N=Cc2ccc(C=Nc3ccc(N(CC)CC)cc3)cc2)cc1`, the displacement was 9.1%. As for `O=C(On1c(-c2ccccc2)nc2ccccc2c1=O)c1cccc([N+](=O)[O-])c1`, the displacement is -4%. To `Cc1cc(C)c(N(C=O)C(=O)C2C(C)C3C=CC2C32CC2)c(C)c1` (stereo unspecified) belongs 2.8%; to `Cc1cc(C)n(-c2cc(Nc3ccccc3)nc(C)n2)n1`, -11.6%.

In the case of `NC(=O)c1c(N2C(=O)c3ccccc3C2=O)sc2c1CCCC2`, the displacement is -10%. Turning to `CCOc1cccc(C(=O)Nc2ccc3ccccc3c2)c1`, the displacement is 10.1%.

Turning to `Cc1ccc(NC2c3ccccc3Oc3ccccc32)cc1`, the displacement amounted to 2.9%. With `COc1ccc(NS(=O)(=O)c2cc(C(=O)Nc3ccccc3C)ccc2C)cc1`, the displacement is -11.1%. Regarding `Cc1cccc(OCC(=O)Nc2ccc(Cl)cc2)c1C`, the displacement was 1.2%. Turning to `O=C1NC(=S)S/C1=C\c1cc(Cl)c(OCc2ccccc2)c(Cl)c1`, the displacement worked out at 8.2%. The result for `COc1ccc(NC(=O)c2ccccc2O)cc1Cl` reads 12.9%; that for `O=[N+]([O-])c1cccc(/C=N\Nc2nc(-c3ccccc3)cc(-c3ccccc3)n2)c1`, 0.3%; that for `COc1cccc(C(=O)Nc2ccc(-c3nc4ccccc4o3)c(O)c2)c1`, -23.2%. For the molecule `O=[N+]([O-])c1ccc(C(O)CN2CCN(C/C=C/c3ccccc3)CC2)cc1` (stereo unspecified), the displacement was -13.3%. As to `CCOc1cc(OCC)cc(C(=O)N2CCN(c3ccc([N+](=O)[O-])cc3)CC2)c1`, the displacement was determined as 16.9%. Turning to `O=C(Cc1ccccc1)Nc1cccc(-c2nc3ccccc3c(=O)o2)c1`, the displacement was 2.5%. On to `O=C1C=C(Nc2ccc(Cl)cc2)C(=O)N1c1ccccc1`, for which the displacement was 3.3%. With `C=CCc1cccc2cc(C(=O)Nc3ccc(S(N)(=O)=O)cc3)c(=O)oc12`, the displacement is 8.4%. To `Cc1nn(Cc2ccccc2)c(=O)c2ccccc12` belongs 5.1%; to `CCOc1ccc(-c2n[nH]c(=S)o2)cc1`, 11.7%. To `COc1cc(Br)c(C2NCCc3cc(OC)c(OC)cc32)cc1OC` (stereo unspecified) belongs 3.3%. Consider `O=C(O)c1ccc2c(c1)C(=O)N(Nc1c(Cl)cc(Cl)cc1Cl)C2=O`, for which the displacement came out at 1.2%. For `COC(=O)c1ccc(/C=c2\sc3nc(-c4ccc(C)cc4)nn3c2=O)cc1`, the displacement came out at 10.7%. For `O=C(COc1ccccc1)Nc1cccc(Cl)c1Cl`, the displacement amounted to 8.7%.

With `O=C(COc1ccccc1)Nc1cc([N+](=O)[O-])ccc1Cl`, the displacement was found to be 3.8%. On to `O=C(c1cccc(Cl)c1)N1CCN(Cc2ccccc2F)CC1`, for which the displacement was -15%.

On to `CCOC(=O)C1=C(O)/C(=C/c2ccc(N(C)C)cc2)N=C1C`, for which the displacement was -116%. For `CCN(CC)c1ccc(NC(=O)c2ccc(Cl)cc2Cl)cc1`, the displacement worked out at 5.9%. Turning to `Cc1ccc2nc(NC(=O)C3C4C=CC(C4)C3C(=O)O)sc2c1` (stereo unspecified), the displacement was -4.5%. With `Cc1ccc(S(=O)(=O)N2CCN(C(=O)c3ccc([N+](=O)[O-])cc3)CC2)cc1`, the displacement is -2.1%.

Regarding `C=C(C)CC1Nc2ccccc2NC1CC(=C)C` (stereo unspecified), the displacement is -10.6%. For the molecule `O=C(Nc1ccc(Cl)c(Cl)c1)N1CCc2ccccc21`, the displacement is -11.2%. As for `CC(=O)c1cnc2cc(-c3ccc(Cl)cc3)nn2c1C`, the displacement was -11.1%.

Regarding `COc1ccc(S(=O)(=O)N(CCc2ccccc2)CC(=O)NC2CCCC2)cc1`, the displacement was -10.9%. Consider `CC(=O)c1ccc(OC(=O)c2ccccc2Br)cc1`, for which the displacement is -10.3%. Take `CCCOc1ccc(-c2nnc(NC(=O)Nc3ccc(Cl)cc3)s2)cc1`: the displacement is 13.4%. Consider `COC(=O)C(F)(F)C(F)(F)C(F)(F)OC(F)(C(=O)OC)C(F)(F)F` (stereo unspecified), for which the displacement was 5.7%. Regarding `CCOc1ccc2nc(NC(=O)C(c3ccccc3)c3ccccc3)sc2c1`, the displacement worked out at 66.7%. With `Cc1ccc(C)c(NC(=O)CC(C)C2CCCO2)c1` (stereo unspecified), the displacement is -2%. The result for `C=CCSc1nc2sc(C(=O)O)c(C)c2c(=O)[nH]1` reads -12%; that for `CC1=C(C(=O)Nc2ccc(Cl)cc2)C(c2ccc(Br)cc2)NC(=O)N1` (stereo unspecified), 4.2%; that for `CC12c3ccccc3C(c3ccccc31)C1C(=O)N(CCO)C(=O)C12` (stereo unspecified), 1.8%. Regarding `Cn1cnnc1Sc1cc(N2CCN(CCO)CC2)ccc1[N+](=O)[O-]`, the displacement is 6.9%. Take `CC(C)OCC(O)CS(=O)(=O)Cc1ccc(Cl)cc1` (stereo unspecified): the displacement is -3.8%.

Regarding `CC(=O)C1=C(O)C(=O)N(c2ccccn2)C1c1cccc([N+](=O)[O-])c1` (stereo unspecified), the displacement is -4%.

As for `C=CCN1C(=O)/C(=C/c2ccc(-c3ccc([N+](=O)[O-])cc3C)o2)SC1=S`, the displacement is 13.1%. As for `CN1C2C=C(N(CCc3c[nH]c4ccccc34)C(=O)c3ccccc3)CC1CC2` (stereo unspecified), the displacement was -10.7%. The result for `CCOc1ccccc1NC(=O)CN(c1ccc(OC)c(Cl)c1)S(C)(=O)=O` reads 2.8%; that for `Cc1cccc(C)c1-n1c(C)cc(/C=N/NC(=O)c2cccnc2)c1C`, -32.4%. Take `NC(=Nc1ccccc1)SC1CC(=O)N(c2ccc(F)cc2)C1=O` (stereo unspecified): the displacement came to 8.6%. To `CCOc1cc(/C=C2\C(=O)NN(c3ccc(Cl)c(Cl)c3)C2=O)ccc1OC(C)=O` belongs 13%; to `COc1ccc(S(=O)(=O)N(CCc2ccccc2)CC(=O)Nc2ccc(F)cc2)cc1OC`, -5.3%. For `COc1cc(CN2CCN(C(=O)CC(C)C)CC2)cc(OC)c1O`, the displacement was -3.9%. In the case of `COc1ccc(/C=C/C=C2\NC(=S)NC2=O)cc1`, the displacement was 128%. As for `CCCCc1c(C)nc(N/N=C/c2c(F)c(F)c(F)c(F)c2F)[nH]c1=O`, the displacement was -10.9%. Consider `CCOC(=O)c1c(-c2ccc(OC)cc2)csc1NC(=O)C1CCCCC1C(=O)O` (stereo unspecified), for which the displacement was -7.2%.

For `CCOc1ccc(NC(=O)C2=C(C)NC(=O)NC2c2cc(OC)ccc2OC)cc1` (stereo unspecified), the displacement turned out to be 15.9%. Regarding `COc1ccc(/C=C2/SC(=S)N(CCCC(=O)OCCN(C)C)C2=O)cc1`, the displacement was -0.9%. As to `CC1C(c2ccccc2)N(C)C(c2ccccc2)CC1(O)Cc1ccccc1` (stereo unspecified), the displacement was 5.6%. Regarding `C(=NCCc1ccccc1)c1ccc(OC2CSC2)cc1`, the displacement was -9.8%. `COc1ccc(C2CC(=O)C3=C(C2)Nc2ccccc2NC3c2cccc(C)c2)cc1` (stereo unspecified): the displacement is -3.9%.

Regarding `Cc1cc2c(cc1C)NC(CC(=O)Nc1ccc(F)cc1)C(=O)N2` (stereo unspecified), the displacement is -7.9%. Consider `CCOc1cccc(C(=O)Nc2nnc(CSCc3ccccc3)s2)c1`, for which the displacement is -1.4%. For `c1coc(CN2CCN(Cc3ccc4c(c3)OCO4)CC2)c1`, the displacement is -4.2%.

Source of the values: PubChem BioAssay AID1240 (Sanford-Burnham Center for Chemical Genomics, 2008).
